These are yes or no findings as the source states them, for the method shown. For part of these data: Binding seen in cells or lysates may run through a third protein. Some entries that bind do so weakly or less than the wild type. For part of these data: Where a sequence is shown, tags or fusion partners need not be part of it.
T1: NXF1 (human (endogenous in HCT116)) (UniProt Q9UBU9)
T1 sequence: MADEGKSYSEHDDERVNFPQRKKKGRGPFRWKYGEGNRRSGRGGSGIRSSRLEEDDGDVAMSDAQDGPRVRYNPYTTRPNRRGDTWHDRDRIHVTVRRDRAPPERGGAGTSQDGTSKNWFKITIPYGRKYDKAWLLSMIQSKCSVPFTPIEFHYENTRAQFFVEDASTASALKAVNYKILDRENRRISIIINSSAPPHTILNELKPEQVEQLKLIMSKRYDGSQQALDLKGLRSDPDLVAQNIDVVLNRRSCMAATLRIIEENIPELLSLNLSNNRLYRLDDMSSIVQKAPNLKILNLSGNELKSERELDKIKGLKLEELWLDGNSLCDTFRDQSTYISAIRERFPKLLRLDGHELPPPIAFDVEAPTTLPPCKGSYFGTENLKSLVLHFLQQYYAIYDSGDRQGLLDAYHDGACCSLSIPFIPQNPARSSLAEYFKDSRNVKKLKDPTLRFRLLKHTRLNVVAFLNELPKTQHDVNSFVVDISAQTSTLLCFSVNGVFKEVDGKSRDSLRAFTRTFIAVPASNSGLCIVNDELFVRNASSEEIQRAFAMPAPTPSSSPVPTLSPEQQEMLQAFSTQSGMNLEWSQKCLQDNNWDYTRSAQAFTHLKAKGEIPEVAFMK

Amino acid sequences for entries named in this document (tags omitted).
UniProt P49792: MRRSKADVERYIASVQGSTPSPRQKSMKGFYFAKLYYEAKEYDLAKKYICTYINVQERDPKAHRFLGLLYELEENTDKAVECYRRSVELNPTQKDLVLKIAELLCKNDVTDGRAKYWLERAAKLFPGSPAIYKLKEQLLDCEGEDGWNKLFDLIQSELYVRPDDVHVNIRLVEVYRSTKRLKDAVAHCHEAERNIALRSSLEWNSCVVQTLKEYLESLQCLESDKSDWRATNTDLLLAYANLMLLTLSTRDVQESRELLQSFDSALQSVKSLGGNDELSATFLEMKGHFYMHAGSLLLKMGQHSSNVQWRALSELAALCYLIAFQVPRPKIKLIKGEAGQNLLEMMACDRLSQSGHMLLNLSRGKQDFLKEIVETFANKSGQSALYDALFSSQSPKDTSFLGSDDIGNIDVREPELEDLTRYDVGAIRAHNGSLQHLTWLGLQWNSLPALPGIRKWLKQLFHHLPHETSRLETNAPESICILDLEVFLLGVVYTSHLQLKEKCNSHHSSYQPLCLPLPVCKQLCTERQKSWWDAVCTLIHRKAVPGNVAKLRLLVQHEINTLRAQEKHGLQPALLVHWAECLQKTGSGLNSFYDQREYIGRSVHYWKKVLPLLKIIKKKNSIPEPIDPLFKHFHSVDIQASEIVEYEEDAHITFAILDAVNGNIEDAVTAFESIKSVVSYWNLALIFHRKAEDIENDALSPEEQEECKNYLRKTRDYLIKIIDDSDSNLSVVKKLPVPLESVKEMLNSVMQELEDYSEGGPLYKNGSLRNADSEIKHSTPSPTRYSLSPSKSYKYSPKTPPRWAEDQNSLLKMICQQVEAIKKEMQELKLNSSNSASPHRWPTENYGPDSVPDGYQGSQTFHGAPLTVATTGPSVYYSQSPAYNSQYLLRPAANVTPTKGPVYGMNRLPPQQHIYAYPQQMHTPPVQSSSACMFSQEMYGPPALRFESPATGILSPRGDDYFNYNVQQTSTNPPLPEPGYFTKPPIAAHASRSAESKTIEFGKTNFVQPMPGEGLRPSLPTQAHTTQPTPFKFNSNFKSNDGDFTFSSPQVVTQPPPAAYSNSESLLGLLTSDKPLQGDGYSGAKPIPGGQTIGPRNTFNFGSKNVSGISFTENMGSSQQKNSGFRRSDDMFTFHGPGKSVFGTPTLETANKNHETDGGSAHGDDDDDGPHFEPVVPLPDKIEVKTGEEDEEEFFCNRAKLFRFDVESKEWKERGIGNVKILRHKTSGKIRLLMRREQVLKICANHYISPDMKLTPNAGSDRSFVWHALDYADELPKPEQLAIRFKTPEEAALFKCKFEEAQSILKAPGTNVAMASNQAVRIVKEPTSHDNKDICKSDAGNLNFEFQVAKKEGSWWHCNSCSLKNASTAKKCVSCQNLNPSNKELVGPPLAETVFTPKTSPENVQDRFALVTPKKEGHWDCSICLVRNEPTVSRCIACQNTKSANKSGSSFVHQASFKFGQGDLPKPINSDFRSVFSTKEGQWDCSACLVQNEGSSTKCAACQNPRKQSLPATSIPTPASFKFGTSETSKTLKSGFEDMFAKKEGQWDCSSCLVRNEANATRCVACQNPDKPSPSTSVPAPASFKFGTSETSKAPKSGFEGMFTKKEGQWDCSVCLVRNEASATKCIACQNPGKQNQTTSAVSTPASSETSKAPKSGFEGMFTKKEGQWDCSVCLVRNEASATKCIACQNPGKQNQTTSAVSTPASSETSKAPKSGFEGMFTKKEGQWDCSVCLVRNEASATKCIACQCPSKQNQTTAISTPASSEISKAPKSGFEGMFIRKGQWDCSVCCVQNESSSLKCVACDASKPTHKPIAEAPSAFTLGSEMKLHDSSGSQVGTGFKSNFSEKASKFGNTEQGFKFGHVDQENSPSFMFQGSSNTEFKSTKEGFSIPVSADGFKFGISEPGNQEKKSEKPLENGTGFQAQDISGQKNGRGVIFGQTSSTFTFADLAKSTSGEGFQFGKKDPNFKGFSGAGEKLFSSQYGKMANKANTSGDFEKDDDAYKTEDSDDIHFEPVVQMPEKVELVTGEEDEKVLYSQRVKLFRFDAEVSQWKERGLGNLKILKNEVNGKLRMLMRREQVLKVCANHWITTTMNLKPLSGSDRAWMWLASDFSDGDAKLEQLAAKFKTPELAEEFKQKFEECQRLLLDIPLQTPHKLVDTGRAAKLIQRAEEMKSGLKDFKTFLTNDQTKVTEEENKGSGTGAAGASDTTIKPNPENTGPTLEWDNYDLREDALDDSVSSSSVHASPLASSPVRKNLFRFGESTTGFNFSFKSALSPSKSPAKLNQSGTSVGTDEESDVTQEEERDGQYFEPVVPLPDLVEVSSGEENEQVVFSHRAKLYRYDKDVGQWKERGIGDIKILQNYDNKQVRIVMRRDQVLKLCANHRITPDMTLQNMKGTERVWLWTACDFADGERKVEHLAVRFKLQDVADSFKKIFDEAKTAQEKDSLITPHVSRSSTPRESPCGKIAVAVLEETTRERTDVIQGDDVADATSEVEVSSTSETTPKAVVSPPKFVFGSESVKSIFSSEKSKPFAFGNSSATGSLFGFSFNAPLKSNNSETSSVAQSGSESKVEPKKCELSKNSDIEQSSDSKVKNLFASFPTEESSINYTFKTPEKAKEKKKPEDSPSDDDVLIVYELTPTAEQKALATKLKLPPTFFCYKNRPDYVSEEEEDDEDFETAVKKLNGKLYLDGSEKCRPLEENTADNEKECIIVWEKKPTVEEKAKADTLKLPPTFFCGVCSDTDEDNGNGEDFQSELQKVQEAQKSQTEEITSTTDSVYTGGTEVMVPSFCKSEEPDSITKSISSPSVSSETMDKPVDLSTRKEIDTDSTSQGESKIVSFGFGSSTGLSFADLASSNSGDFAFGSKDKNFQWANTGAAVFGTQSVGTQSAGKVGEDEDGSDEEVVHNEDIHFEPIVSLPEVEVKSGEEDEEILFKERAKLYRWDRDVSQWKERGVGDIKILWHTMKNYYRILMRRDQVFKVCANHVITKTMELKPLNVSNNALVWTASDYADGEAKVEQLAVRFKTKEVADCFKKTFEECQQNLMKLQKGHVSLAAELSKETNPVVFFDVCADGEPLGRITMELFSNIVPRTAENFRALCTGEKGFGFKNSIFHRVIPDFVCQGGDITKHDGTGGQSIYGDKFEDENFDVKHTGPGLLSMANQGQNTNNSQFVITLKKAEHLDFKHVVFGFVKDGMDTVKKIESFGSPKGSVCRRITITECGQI
UniProt P37198: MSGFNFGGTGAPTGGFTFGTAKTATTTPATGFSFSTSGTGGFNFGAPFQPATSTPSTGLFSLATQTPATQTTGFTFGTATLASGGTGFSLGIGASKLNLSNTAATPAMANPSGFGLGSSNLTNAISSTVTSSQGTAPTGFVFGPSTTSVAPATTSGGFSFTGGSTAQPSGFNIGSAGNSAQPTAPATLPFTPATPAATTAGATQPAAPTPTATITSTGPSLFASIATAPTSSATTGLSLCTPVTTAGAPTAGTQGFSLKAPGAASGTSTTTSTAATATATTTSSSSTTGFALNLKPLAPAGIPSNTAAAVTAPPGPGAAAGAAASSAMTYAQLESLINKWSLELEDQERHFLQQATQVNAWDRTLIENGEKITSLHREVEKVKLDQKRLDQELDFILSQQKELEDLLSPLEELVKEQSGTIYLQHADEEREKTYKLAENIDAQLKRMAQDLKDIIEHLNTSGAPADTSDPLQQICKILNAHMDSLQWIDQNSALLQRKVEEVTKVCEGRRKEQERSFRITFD
UniProt P49790: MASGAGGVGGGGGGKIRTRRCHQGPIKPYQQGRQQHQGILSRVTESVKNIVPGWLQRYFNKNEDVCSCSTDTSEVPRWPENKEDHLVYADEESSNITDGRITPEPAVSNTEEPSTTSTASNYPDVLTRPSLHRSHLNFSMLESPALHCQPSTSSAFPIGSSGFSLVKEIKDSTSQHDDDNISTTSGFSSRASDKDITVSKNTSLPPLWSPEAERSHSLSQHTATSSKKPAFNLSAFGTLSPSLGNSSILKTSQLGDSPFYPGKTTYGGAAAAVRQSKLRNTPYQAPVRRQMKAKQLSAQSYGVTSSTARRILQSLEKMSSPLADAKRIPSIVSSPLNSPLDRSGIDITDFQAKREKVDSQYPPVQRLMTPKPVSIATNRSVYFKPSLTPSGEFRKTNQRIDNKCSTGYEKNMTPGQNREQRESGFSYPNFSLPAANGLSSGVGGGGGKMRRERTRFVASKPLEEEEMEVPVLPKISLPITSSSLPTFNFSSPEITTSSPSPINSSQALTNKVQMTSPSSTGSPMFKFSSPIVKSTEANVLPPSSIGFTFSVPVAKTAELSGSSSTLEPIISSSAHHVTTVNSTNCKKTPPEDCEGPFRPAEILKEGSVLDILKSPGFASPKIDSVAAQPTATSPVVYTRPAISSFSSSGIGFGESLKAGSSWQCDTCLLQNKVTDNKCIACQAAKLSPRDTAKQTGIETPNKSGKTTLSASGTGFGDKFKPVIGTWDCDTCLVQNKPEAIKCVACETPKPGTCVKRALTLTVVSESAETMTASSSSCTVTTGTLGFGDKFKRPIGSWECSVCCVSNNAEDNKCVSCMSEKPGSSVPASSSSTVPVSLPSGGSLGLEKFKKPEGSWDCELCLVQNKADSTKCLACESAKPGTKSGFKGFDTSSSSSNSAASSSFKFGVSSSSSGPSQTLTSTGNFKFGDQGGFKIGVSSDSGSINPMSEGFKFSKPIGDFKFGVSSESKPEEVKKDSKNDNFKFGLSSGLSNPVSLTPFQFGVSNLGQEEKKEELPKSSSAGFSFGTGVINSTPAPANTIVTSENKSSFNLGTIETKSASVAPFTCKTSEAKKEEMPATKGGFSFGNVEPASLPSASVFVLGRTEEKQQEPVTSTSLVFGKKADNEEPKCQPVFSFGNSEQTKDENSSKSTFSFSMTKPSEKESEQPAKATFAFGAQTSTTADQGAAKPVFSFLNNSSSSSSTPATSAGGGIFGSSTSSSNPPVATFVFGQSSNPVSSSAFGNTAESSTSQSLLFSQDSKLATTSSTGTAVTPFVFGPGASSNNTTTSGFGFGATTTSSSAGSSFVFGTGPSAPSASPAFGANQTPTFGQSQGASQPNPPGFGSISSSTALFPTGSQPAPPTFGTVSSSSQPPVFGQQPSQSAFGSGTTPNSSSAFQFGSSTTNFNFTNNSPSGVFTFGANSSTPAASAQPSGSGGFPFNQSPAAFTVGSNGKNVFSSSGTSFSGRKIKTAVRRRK

T2: His-NXF1(371-621) (UniProt Q9UBU9)
T2 sequence: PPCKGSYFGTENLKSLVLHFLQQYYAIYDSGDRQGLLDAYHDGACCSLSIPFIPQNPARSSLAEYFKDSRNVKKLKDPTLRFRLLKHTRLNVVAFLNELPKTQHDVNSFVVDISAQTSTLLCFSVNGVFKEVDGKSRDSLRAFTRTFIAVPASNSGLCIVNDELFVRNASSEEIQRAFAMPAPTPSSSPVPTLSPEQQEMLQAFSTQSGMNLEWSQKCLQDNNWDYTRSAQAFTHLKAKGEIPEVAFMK


What was measured:
[1] = target: GANP (germinal center-associated nuclear protein) (human (endogenous in HCT116)) (UniProt O60318); assay: co-IP; endogenous proteins from cellular extract of HCT116 cells; immunoprecipitation with anti-GANP antibody, mAb414, anti-Nup358 antibody or sheep IgG; blotted for GANP and mAb414
[2] = target: Nup358 (human (endogenous in HCT116)) (UniProt P49792); assay: as above
[3] = target: T1, NXF1 (human (endogenous in HCT116)); assay: co-IP; endogenous proteins from nuclear extracts of HCT116 cells; anti-GANP immunoprecipitation in the presence of RNase A, anti-NXF1 immunoprecipitation; immunoblot for GANP and NXF1
His-NXF1(371-621) = target: T2, His-NXF1(371-621); assay: pull-down; His-NXF1(371-621) prebound to Ni-NTA agarose, incubated with GST alone or GST-GANP(1-313) for 2 hr at 4°C; resin washed extensively; SDS-PAGE and Coomassie staining; both purified

Row | binding [1] | Molecule | further results
1 | no binding | Nup62 (from UniProt P37198 1-522) | –
2 | binds | Nup358 (from UniProt P49792 1-3224) | –
3 | binds | Nup153 (from UniProt P49790 1-1475) | –
4 | – | GANP (germinal center-associated nuclear protein) (from UniProt O60318 1-1980) | binding [2]: binds; binding [3]: binds
5 | – | GST-GANP(1-313) (domain or fragment, UniProt O60318 1-313) MNPTNPFSGQQPSAFSASSSNVGTLPSKPPFRFGQPSLFGQNSTLSGKSSGFSQVSSFPASSGVSHSSSVQTLGFTQTSSVGPFSGLEHTSTFVATSGPSSSSVLGNTGFSFKSPTSVGAFPSTSAFGQEAGEIVNSGFGKTEFSFKPLENAVFKPILGAESEPEKTQSQIASGFFTFSHPISSAPGGLAPFSFPQVTSSSATTSNFTFSKPVSSNNSLSAFTPALSNQNVEEEKRGPKSIFGSSNNSFSSFPVSSAVLGEPFQASKAGVRQGCEEAVSQVEPLPSLMKGLKRKEDQDRSPRRHGHEPAEDSD | binding (His-NXF1(371-621)): binds

Reference: publication PMC2869303
